# Results reported in the supplement of paper PMC12632987.
# Whole data set: some 2,300 sequences, median “median log2 fold change of GCK-ALFA target abundance (FLAG IP / Myc IP barcode read proportion)” near 0.095, cut for the lowest 2% near -0.47. Some of the results follow.
# B1: LC3A_28_1305 (protein)
# chain: SKLKKQFEEAKKKVEEAAAKGEPVVVTIEITAEEAEKELEEILELLEELGKVASKAPGATIIIDLDENVKPELQQKILDTAEKIEEKYPNVTVIIAIEDN
# B2: LC3A_28_1126 (protein)
# chain: SARKEAWEKAFEEAKKLAEKGEYVVAEFTATGKDTQEDIDYLIEVIEKAAKYLSEKGQSSILLDIDGSLPEEYRNYVIDKADEIEKKYPSVNIVIALEED
# B3: LC3A_132_271 (protein)
# chain: SEEKLQAAKEEIFAILDEIVDLLVAGEDPWPAITRLDETARKHAKELSLEDTEKLVEEAEAHARRLFAERADPNDPEARRVLDHIEMLLDSVLIEKELES
# B4: LC3A_28_1000 (protein)
# chain: SELEKQLEEALAEAKEAAARGEPVVITITVSGKADEEDIEKIIEAMREIAEILKDIPGSAIIVDIDSKLPQELRDKLFEAGEEIEEEYPNVTVIFALDEE
# B5: LC3A_free_8_2481 (protein)
# chain: GSEELAKALVEALDKAEEEIIKKAKELGKSRLDILELELEFGSIIADVISNRDKSPEEILKTLKDGLERLIEIAKEIGEEIAALVKEKAEEILAEAEKLL
# B6: LC3A_132_295 (protein)
# chain: MEEKAEKYLKELKALIAAAKANIDDDAKVTALLKEIEAKIEEAEKELTPEEVAKVFEEVADELWALSQVFDAAGKEQLALEADGLAIEAASLALRAKEKI
# B7: LC3A_28_710 (protein)
# chain: MEIEENIKKALEEAKEAAEKGEEVVIEIKIPGDATEEDIEKVIKALEEIAEILKDLPFAAIIVDVDGKVKQEHIDKIADKAEEIEKKYPNVTVIIALEEE
# B8: LC3A_3_1378 (protein)
# chain: GEEMLEEARKILEAQGRSEEVIEAALETLKALLEKGYFEAAKTLIELLKESEDLSDEELLWFFEEIKRAVTEEDLSEEELIELIKEEFRIAKSAEEIIEL
# B9: LC3A_free_26_2132 (protein)
# chain: EEFIDIYNLDRAEELLEKIIKELEKYPEKYKELKEKAKEAKKLVKKETLESLKKAKEILEEIIKELEKREDEDPELMKKLKELAEEAKEHIEEVIEIMES
# B10: LC3A_28_1308 (protein)
# chain: SAIDERFAAAIAEARAAAAAGEPVVVTVDITAEEAEEELDTILAKLEELAAEASKVPDAVIIVDVDEKVKQENLTKIAKKAEELEKKYPNVTVIIAISDE
# B11: LC3A_28_1159 (protein)
# chain: SAIEENIERAREEAERAIERGEPTVITIKIGGDATEEDIELAIEALEELARLGQEYGLIDIVIDVDGDVKQEHIDLIADKAEEIEKKYPKVNIIIALDDE
# B12: LC3A_free_26_2151 (protein)
# chain: DEFIDIYHLDKAIEKLEEALKLAEEDPNASEELKKLVKEALEEVKKETLEGLKKAAELIKKALKLVEADPSLDEETKAKLAKLLKEALKEVEENIEIMES
# B13: LC3A_3_1904 (protein)
# chain: SEELIEKTLAYLKEKGASEETLEKARELLELLAERGLEEELKLVAESIKRLADLSVEKAAEFIERLLKFAKADKRPKEEFAKAMKEETRTLTAEAEIIEL
# B14: LC3A_147_460 (protein)
# chain: YLVTVDIDILTKNAEKEIIEDFKELAEELRAEGYEVELEIEVEQLDPNTTFIHVRIKVKAETKEEAEEAANKILDRIDEIEEKHKEDILGSLISVEIEEE
# B15: LC3A_141_375 (protein)
# chain: TTVVIEREKELNTIEEAIELIEEVEKEVLAALAKLDGKPVKVTIKVTITKKTTGEVKEYEDTVDGSPEDVELAMEGFMVEIASEVLKDPVKVTIKVTLEA
# B16: LC3A_3_1574 (protein)
# chain: SEARLAAMLARLREAGFSEAVIAAAREALEALLAKGAEEAAELVLETLLELKDAPDELLIDLLNDVLELVKTDKGSLEELTEKVKELISTYRSEAEIIEL
# B17: LC3A_23_603 (protein)
# chain: KYLVELEVSVITEPEEAAAKEKALLEKFEEIFEKYKDKIVEKEVKVTREALPDGRTFLEIRVKIVIDGTEEEALEIANELEDAAAEVVPDGVISREVEKL
# B18: LC3A_102_128 (protein)
# chain: NVEELKREKLREVEEEVRKLLEKDESLSEEEKEKVLRLALELAEHRLRNAEIEIQHGFSDIEEEDKALEALEKLEEISPEIAEKVREIVERAVEEFREEL
# B19: LC3A_free_46_2388 (protein)
# chain: ARGEIHALASPTDLETAKKLAEEARRAVEEVAKEYGVKVEVKVEIIKNEDGKYEVYIDVTIEGDDLDTVEAAADAIEERLREIAEKYGVKLASIISFEET
# B20: LC3A_59_2027 (protein)
# chain: SAELDAYIKKIIENKDDLEKLAETLLEAFTAVKDDPEKLAELKEKVVKALVESGLLSEELAKELVEEIEEIVDTEKDKEEALKKILEELRVAINENEIIE
# B21: LC3A_3_1547 (protein)
# chain: MEELREELLAELREAGASDEVLAAVAAAFDALIERGYERALEVLARETRELIGLPDELLLDFAEEVLETIETEDLNEEEVIEEIKRIARTTRNEAEIEEL
# B22: LC3A_13_332 (protein)
# chain: TITITAETPEELRAKTTAAIAAHPGEKLVITATVKDEEEADAVAEVLGELLKQAKAAGNTVDITLVGPPEYTNYAAVLIGEELAENAPDLKVDITTEEAP
# B23: LC3A_17_567 (protein)
# chain: SAEIEKAYAETLKTLKEAAEFAKTVDEEAAKKLEELIKKVEEAAKTGDPKTIAEVSAQAALEAADILESLKSPDPEKKEHLIMEMEGQAIEWESLLLKLE
# B24: LC3A_28_1217 (protein)
# chain: SEIDKELERARKEAEKAKKEGKEALLEIKIPSSATLEDVEYAMERLEEIVEEVKDLPRIDIIISFEAGVSQEVIDAAAEGGERIEKKFPNVTVIIALDEE
# B25: LC3A_free_8_2450 (protein)
# chain: SKEEIVKTALEGLDKLEEELVKKAKELGLSRLDILELELEIGEAIAELISLSDASPEEIIETTKEGLERIIKLAKELGEELEKLAKKGAEELLKKLEELK
# B26: LC3A_free_46_2320 (protein)
# chain: YKANIDIDLFGVDKEKAEAAVKEIKEKIKEIAKKYNLELEIEVEIEKNEDGTYYVNINITLKGENKEDIEKAVNEIIDSIEEIAEKYGANYVISYEIEEE
# B27: LC3A_28_762 (protein)
# chain: ATPEERVAAAIAAAREAKAAGVSDVITLTVPDGATAADVDIYIAGLREIAEILRDMENAAIVIDVEGGVAADNLQRLVDEAERIEEEYPNVTVIIALDEE
# B28: LC3A_free_12_2126 (protein)
# chain: SLEEMEKEGALIEAEYHRDDEAALTALLVSLIDAGKEEIAVEVFRYLAFELKLSEATLTAIAKAMMANPKLTPEAKAKILAIAKEAGYAETAAAIEAAMA
# B29: LC3A_28_827 (protein)
# chain: SHIEERMKKFEEEVNEAVEKGESATFTVTITSEDTLEEVKEIMEKVEELAEKAKDVPNIAIIIDLDGPISQEKLNLILEKADEIEEKYPNVSVIVALPED
# Target: MAP1LC3A, Q9H492
# Assay: median log2 fold change of GCK-ALFA target abundance (FLAG IP / Myc IP barcode read proportion) (log2 ratio); each designed protein is fused to an ALFA-tag nanobody in HEK293 cells to bring the named protein to FLAG-tagged glucokinase (GCK); Myc marks an untargeted standard; higher = target protein stabilised (more abundant)
# Settings: target protein: 3xFLAG-MCP-GCK-ALFA reporter; HEK293 landing pad (RPLP)
# How it was run: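 The readout is target abundance, the per-binder median log2 ratio of FLAG to Myc barcode read proportions. It came from HEK293 landing-pad cells carrying a recombined ALFA-nanobody-fused binder library, induced with 2 μg mL^−1 doxycycline and transfected with a plasmid for a FLAG-tagged target and a Myc-tagged standard. After 48 h, lysates were immunoprecipitated with anti-FLAG and anti-Myc, and circular RNA barcodes were reverse transcribed, amplified and sequenced. Each barcode needed a proportion of at least 10^−7 in both replicates and each binder at least 3 barcodes per replicate, a pseudocount of 10^−6 was added, and the replicates were pooled.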
row,Binder,median log2 fold change
1,B1,0.305
2,B2,-0.45
3,B3,0.167
4,B4,-0.107
5,B5,0.111
6,B6,0.0471
7,B7,-0.149
8,B8,0.0895
9,B9,-0.0992
10,B10,0.124
11,B11,-0.116
12,B12,0.093
13,B13,0.242
14,B14,-0.416
15,B15,-0.0874
16,B16,0.119
17,B17,0.0328
18,B18,0.236
19,B19,0.0487
20,B20,0.297
21,B21,-0.0616
22,B22,0.182
23,B23,0.303
24,B24,0.24
25,B25,-0.101
26,B26,-0.195
27,B27,0.086
28,B28,0.366
29,B29,-0.269
